# Biological target: dopamine D2 receptor (Homo sapiens, UniProt P14416)
# Experiment: biochemical
# Details: D2 Ki (nM), Table 1; 0.4 nM [3H]spiperone, CHO-hD2L membranes
# Chain of UniProt P14416 (P14416 whole entry): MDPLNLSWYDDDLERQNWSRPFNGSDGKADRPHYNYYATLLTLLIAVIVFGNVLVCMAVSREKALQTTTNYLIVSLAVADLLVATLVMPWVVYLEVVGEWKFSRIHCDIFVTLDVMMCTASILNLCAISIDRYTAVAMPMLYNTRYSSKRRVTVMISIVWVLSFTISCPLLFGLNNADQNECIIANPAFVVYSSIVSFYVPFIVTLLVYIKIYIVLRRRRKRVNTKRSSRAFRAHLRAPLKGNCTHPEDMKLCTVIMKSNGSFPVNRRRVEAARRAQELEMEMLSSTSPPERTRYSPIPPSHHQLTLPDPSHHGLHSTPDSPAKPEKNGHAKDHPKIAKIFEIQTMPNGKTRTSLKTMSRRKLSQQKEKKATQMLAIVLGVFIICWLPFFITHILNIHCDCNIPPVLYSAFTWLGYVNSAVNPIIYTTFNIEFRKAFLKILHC
row,SMILES,Ki
1,"O=c1ccc2ccc(OCCCCN3CCN(c4cccc5c4CC(O)CC5)CC3)nc2[nH]1 (centres unmarked) [Example B41, 7-{4-[4-(7-Hydroxy-5,6,7,8-tetrahydro-naphthalen-1-yl)-piperazin-1-yl]-butoxy}-1H-[1,8]naphthyridin-2-one]",4.2 nM
2,"O=C1CCc2cnc(OCCCCN3CCN(c4cccc(Cl)c4Cl)CC3)c(Br)c2N1 [Example I8, 8-Bromo-7-{4-[4-(2,3-dichloro-phenyl)-piperazin-1-yl]-butoxy}-3,4-dihydro-1H-[1,6]naphthyridin-2-one]",5.9 nM
3,"O=c1ccc2ccc(OCCCCN3CCN(c4ccccc4-c4ccccc4)CC3)nc2[nH]1 [Example B26, 7-[4-(4-Biphenyl-2-yl-piperazin-1-yl)-butoxy]-1H-[1,8]naphthyridin-2-one]",11.5 nM
4,"CCc1cccc(N2CCN(CCCCOc3ccc4c(n3)NC(=O)CC4)CC2)n1 [Example A45, 7-{4-[4-(6-Ethyl-pyridin-2-yl)-piperazin-1-yl]-butoxy}-3,4-dihydro-1H-[1,8]naphthyridin-2-one]",2.8 nM
5,"CC1(C)CCc2cccc(N3CCN(CCCCOc4ccc5ccc(=O)[nH]c5n4)CC3)c2C1=O [Example B36, 7-{4-[4-(7,7-Dimethyl-8-oxo-5,6,7,8-tetrahydro-naphthalen-1-yl)-piperazin-1-yl]-butoxy}-1H-[1,8]naphthyridin-2-one]",3 nM
6,"O=c1ccc2ccc(OCCCCN3CCN(c4cccc5cccc(Cl)c45)CC3)nc2[nH]1 [Example B59, 7-{4-[4-(8-Chloro-naphthalen-1-yl)-piperazin-1-yl]-butoxy}-1H-[1,8]naphthyridin-2-one]",5.1 nM
7,"O=C1NCc2ccc(OCCCCN3CCN(c4cccc5ccc(F)cc45)CC3)nc2N1 [Example F5, 7-{4-[4-(7-Fluoro-naphthalen-1-yl)-piperazin-1-yl]-butoxy}-3,4-dihydro-1H-pyrido[2,3-d]pyrimidin-2-one]",1 nM
8,"Cc1cc(=O)[nH]c2nc(OCCCCN3CCN(c4cccc(Cl)c4Cl)CC3)ccc12 [Example D1, 7-{4-[4-(2,3-Dichloro-phenyl)-piperazin-1-yl]-butoxy}-4-methyl-1H-[1,8]naphthyridin-2-one]",1 nM
9,"CC(C)COc1ccccc1N1CCN(CCCCOc2ccc3ccc(=O)[nH]c3n2)CC1 [Example B11, 7-{4-[4-(2-Isobutoxy-phenyl)-piperazin-1-yl]-butoxy}-1H-[1,8]naphthyridin-2-one]",1.4 nM
10,"Cc1cccc(N2CCN(CCCCOc3ccc4ccc(=O)[nH]c4n3)CC2)c1Oc1ccccc1 [Example B21, 7-{4-[4-(3-Methyl-2-phenoxy-phenyl)-piperazin-1-yl]-butoxy}-1H-[1,8]naphthyridin-2-one]",6.7 nM
11,"CC1(C)CC(=O)Nc2nc(OCCCCN3CCN(c4cccc5c4CCC5)CC3)ccc21 [Example D19, 7-[4-(4-Indan-4-yl-piperazin-1-yl)-butoxy]-4,4-dimethyl-3,4-dihydro-1H-[1,8]naphthyridin-2-one]",3.2 nM
12,"O=C1CCc2cc(Br)c(OCCCCN3CCN(c4cccc5ccccc45)CC3)nc2N1 [Example E8, 6-Bromo-7-[4-(4-naphthalen-1-yl-piperazin-1-yl)-butoxy]-3,4-dihydro-1H-[1,8]naphthyridin-2-one]",1.4 nM
13,"O=c1ccc2ccc(OCCCCN3CCN(c4cccc5cccc(F)c45)CC3)nc2[nH]1 [Example B50, 7-{4-[4-(8-Fluoro-naphthalen-1-yl)-piperazin-1-yl]-butoxy}-1H-[1,8]naphthyridin-2-one]",1 nM
14,"O=c1ccc2ccc(OCCCCN3CCN(c4cccc(C5CC5)n4)CC3)nc2[nH]1 [Example B29, 7-{4-[4-(6-Cyclopropyl-pyridin-2-yl)-piperazin-1-yl]-butoxy}-1H-[1,8]naphthyridin-2-one]",1 nM
15,"COc1ccc2c(N3CCN(CCCCOc4ccc5ccc(=O)[nH]c5n4)CC3)cccc2c1 [Example B61, 7-{4-[4-(6-Methoxy-naphthalen-1-yl)-piperazin-1-yl]-butoxy}-1H-[1,8]naphthyridin-2-one]",23.9 nM
16,"O=C1CCc2ccc(OCCCCN3CCN(c4cccc5c4C(=O)CCC5)CC3)nc2N1 [Example A51, 7-{4-[4-(8-Oxo-5,6,7,8-tetrahydro-naphthalen-1-yl)-piperazin-1-yl]-butoxy}-3,4-dihydro-1H-[1,8]naphthyridin-2-one]",0.4 nM
17,"O=C1COc2ccc(OCCCCN3CCN(c4cccc(Cl)c4Cl)CC3)nc2N1 [Example G3, 6-{4-[4-(2,3-Dichloro-phenyl)-piperazin-1-yl]-butoxy}-4H-pyrido[3,2-b][1,4]oxazin-3-one]",1.4 nM
18,"O=c1ccc2ccc(OCCCCN3CCN(c4ncccn4)CC3)nc2[nH]1 [Example B30, 7-[4-(4-Pyrimidin-2-yl-piperazin-1-yl)-butoxy]-1H-[1,8]naphthyridin-2-one]",28 nM
19,"O=C1NCc2ccc(OCCCCN3CCN(c4cccc5c4CCCC5)CC3)nc2N1 [Example F4, 7-{4-[4-(5,6,7,8-Tetrahydro-naphthalen-1-yl)-piperazin-1-yl]-butoxy}-3,4-dihydro-1H-pyrido[2,3-d]pyrimidin-2-one]",1.4 nM
20,"O=C1CCc2cccc(N3CCN(CCCCOc4ccc5ccc(=O)[nH]c5n4)CC3)c2C1 [Example B40, 7-{4-[4-(7-Oxo-5,6,7,8-tetrahydro-naphthalen-1-yl)-piperazin-1-yl]-butoxy}-1H-[1,8]naphthyridin-2-one]",1.4 nM
21,"O=C1CCc2cc(Cl)c(OCCCCN3CCN(c4cccc5ccccc45)CC3)nc2N1 [Example E6, 6-Chloro-7-[4-(4-naphthalen-1-yl-piperazin-1-yl)-butoxy]-3,4-dihydro-1H-[1,8]naphthyridin-2-one]",3.5 nM
22,"CC(F)(F)c1ccccc1N1CCN(CCCCOc2ccc3c(n2)NC(=O)CC3)CC1 [Example A42, 7-(4-{4-[2-(1,1-Difluoro-ethyl)-phenyl]-piperazin-1-yl}-butoxy)-3,4-dihydro-1H-[1,8]naphthyridin-2-one]",4.9 nM
23,"CC(CCCN1CCN(c2cccc(Cl)c2Cl)CC1)Oc1ccc2c(n1)NC(=O)CC2 (centres unmarked) [Example C5, 7-{4-[4-(2,3-Dichloro-phenyl)-piperazin-1-yl]-1-methyl-butoxy}-3,4-dihydro-1H-[1,8]naphthyridin-2-one]",1.4 nM
24,"Cc1cc(OCCCCN2CCN(c3cccc4c3CCCC4)CC2)nc2c1CCC(=O)N2 [Example E11, 5-Methyl-7-{4-[4-(5,6,7,8-tetrahydro-naphthalen-1-yl)-piperazin-1-yl]-butoxy}-3,4-dihydro-1H-[1,8]naphthyridin-2-one]",1 nM

# Same assay, conditions: D2 Ki (nM), Table 2; 0.4 nM [3H]spiperone, CHO-hD2L membranes
row,SMILES,Ki
1,"O=C1CCc2ccc(OCCCCN3CCN(c4cccc5cccnc45)CC3)nc2N1 [Example A34′, 7-[4-(4-Quinolin-8-yl-piperazin-1-yl)-butoxy]-3,4-dihydro-1H-[1,8]naphthyridin-2-one]",1 nM
2,"Cc1nc(OCCCCN2CCN(c3cccc4c3OCC4)CC2)nc2[nH]c(=O)ccc12 [Example G11′, 2-{4-[4-(2,3-Dihydro-benzofuran-7-yl)-piperazin-1-yl]-butoxy}-4-methyl-8H-pyrido[2,3-d]pyrimidin-7-one]",2 nM
3,"CC1(C)COc2c(cccc2N2CCN(CCCCOc3ccc4ccc(=O)[nH]c4n3)CC2)C1=O [Example B16′, 7-{4-[4-(3,3-Dimethyl-4-oxo-chroman-8-yl)-piperazin-1-yl]-butoxy}-1H-[1,8]naphthyridin-2-one]",1.1 nM
4,"CC1C=Cc2cccc(N3CCN(CCCCOc4ccc5ccc(=O)[nH]c5n4)CC3)c2O1 (centres unmarked) [Example B4′, 7-{4-[4-(2-Methyl-2H-chromen-8-yl)-piperazin-1-yl]-butoxy}-1H-[1,8]naphthyridin-2-one]",1 nM
5,"O=C1NCc2ccc(OCCCCN3CCN(c4cccc5c4OCC5)CC3)nc2N1 [Example E3′, 7-{4-[4-(2,3-Dihydro-benzofuran-7-yl)-piperazin-1-yl]-butoxy}-3,4-dihydro-1H-pyrido[2,3-d]pyrimidin-2-one]",0.7 nM
6,"O=C1CCc2ccc(OCCCCN3CCN(c4cccc5c4NC(=O)CC5)CC3)nc2N1 [Example A48′, 7-{4-[4-(2-Oxo-1,2,3,4-tetrahydro-quinolin-8-yl)-piperazin-1-yl]-butoxy}-3,4-dihydro-1H-[1,8]naphthyridin-2-one]",7.4 nM
7,"O=C1CCc2ccc(OCCCCN3CCN(c4cccc5cnccc45)CC3)nc2N1 [Example A37′, 7-[4-(4-Isoquinolin-5-yl-piperazin-1-yl)-butoxy]-3,4-dihydro-1H-[1,8]naphthyridin-2-one]",1.6 nM
8,"O=C1COc2ccc(OCCCCN3CCN(c4cccc5c4NC(=O)CC5)CC3)nc2N1 [Example F3′, 6-{4-[4-(2-Oxo-1,23,4-tetrahydro-quinolin-8-yl)-piperazin-1-yl]-butoxy}-4H-pyrido[3,2-b][1,4]oxazin-3-one]",10.1 nM
9,"O=C1CCc2cccc(N3CCN(CCCCOc4ccc5ccc(=O)[nH]c5n4)CC3)c2N1 [Example B37′, 7-{4-[4-(2-Oxo-1,2,3,4-tetrahydro-quinolin-8-yl)-piperazin-1-yl]-butoxy}-1H-[1,8]naphthyridin-2-one]",3.2 nM
10,"O=c1ccc2ccc(OCCCCN3CCN(c4cccc5cccnc45)CC3)nc2[nH]1 [Example B21′, 7-[4-(4-Quinolin-8-yl-piperazin-1-yl)-butoxy]-1H-[1,8]naphthyridin-2-one]",1 nM
11,"O=C1CCc2ccc(OCCCCN3CCN(c4cccc5[nH]ccc45)CC3)nc2N1 [Example A25′, 7-{4-[4-(1H-Indol-4-yl)-piperazin-1-yl]-butoxy}-3,4-dihydro-1H-[1,8]naphthyridin-2-one]",1.4 nM
12,"CC1(C)CCc2cccc(N3CCN(CCCCOc4ccc5ccc(=O)[nH]c5n4)CC3)c2O1 [Example B3′, 7-{4-[4-(2,2-Dimethyl-chroman-8-yl)-piperazin-1-yl]-butoxy}-1H-[1,8]naphthyridin-2-one]",2 nM
13,"O=C1CCc2ccc(OCCCCN3CCN(c4cccc5c4CCOC5)CC3)nc2N1 [Example A14′, 7-[4-(4-Isochroman-5-yl-piperazin-1-yl)-butoxy]-3,4-dihydro-1H-[1,8]naphthyridin-2-one]",3 nM
14,"O=C1CCc2ccc(OCCCCN3CCN(c4cccc5ncc(F)cc45)CC3)nc2N1 [Example A38′, 7-{4-[4-(3-Fluoro-quinolin-5-yl)-piperazin-1-yl]-butoxy}-3,4-dihydro-1H-[1,8]naphthyridin-2-one]",1 nM

# Reference: patent publication US7160888B2, “[1,8]naphthyridin-2-ones and related compounds for the treatment of schizophrenia” (Warner Lambert Company LLC, priority 2003, dated 2007)
